# Source: PubChem BioAssay (NCATS)
# The shares of active, inactive and inconclusive entries below differ from those in the screen. For part of these data: Potencies beside an inconclusive call are fits to weak or partial responses and may not hold up. Activity calls are given as the source filed them. The call rests on the fitted dose curve; in most records, active means well fitted curve in the direction sought with a large enough effect; inconclusive means small, poorly fitted or top-dose-only effect, or another doubt; inactive means no such curve, though single readings can be large; an effect the other way counts as inactive or inconclusive.
# How the values were obtained:
# [1] = tested on: Zika virus NS2B-NS3 protease (linked construct); experiment: Confirmatory screen NINDS AMC qHTS for Zika virus inhibitors (AID 1347152); further: nearly all actives have a fitted effect of over 70% in size; further: potency means the concentration at half of the fitted maximal effect;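 on activity change, negative = inhibition: AMC fluorescence gain from cleaved Bz-Nle-KRR-AMC substrate over 15 min; top concentration of the series differs between compounds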
# Summary of the method: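 Purified NS2B-NS3 protease with NS2B hydrophilic domain linked to NS3 protease domain by flexible linker, 1 nM final in 10 mM Tris-HCl pH 8.0, 0.01% Tween 20. Compounds preincubated 15 min, room temperature; Bz-Nle-KRR-AMC 10 microM (Km 18.3 µM); 15-min fluorescence change, 4-parameter Hill fit.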
# [2] = tested on: Zika virus NS2B-NS3 protease (linked); experiment: 384 well plate NINDS AMC confirmatory qHTS for Zika virus inhibitors (AID 1347163); further: potency means the concentration at half of the fitted maximal effect; nearly all actives have a fitted effect of over 50% in size
# Summary of the method: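 Enzyme (5, 30 or 60 nM final) first met test compounds for ~15 min. The AMC-tagged peptide Ac-VKTGKR-AMC followed at 30 microM. Fluorescence was then recorded at 25 min and scaled against no-enzyme and no-inhibitor wells.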
# [3] = tested on: Zika virus NS2B-NS3 protease; experiment: Primary screen GU AMC qHTS for Zika virus inhibitors (AID 1347154); further: nearly all actives have a fitted effect of over 70% in size; further: potency means the concentration at half of the fitted maximal effect
# Summary of the method: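 Fluorogenic AMC-substrate cleavage by noncovalent NS2B-NS3 protease complex (25 nM, pH 8.0 Tris buffer with Tween 20) followed for 15 minutes at room temperature (~20% conversion). Percent inhibition from ex340/em450 signal change, fitted by 4-parameter Hill equation.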
# [4] = ZIKV-mCherry secondary qHTS for Zika virus inhibitors (AID 1347158); details: Vero cells, ZIKV-mCherry infection imaging, 48-72 h; activity change, negative = inhibition: at 49.2 µM (top of the series); further: potency means the concentration at half of the fitted maximal effect
# Summary of the method: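 Read-out is percent infection: mCherry-positive Vero cells (nuclear-proximal intensity >450 RFU, 3 SD above negative controls) counted by high-content imaging of Hoechst-stained, PFA-fixed wells after 48-72 h with ZIKV-mCherry at MOI 1 and compound.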
# [5] = Tertiary RLuc qRT-PCR qHTS assay for Zika virus inhibitors (AID 1347169); further: nearly all actives have a fitted effect of over 55% in size; further: potency means the concentration at half of the fitted maximal effect; on activity change, negative = inhibition: top concentration of the series differs between compounds
# Summary of the method: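 Vero cells (1,000 per well) plated overnight at 37 degrees C, treated with compound in DMSO, then infected with recombinant ZIKV-RLuc (Cambodian) at MOI 1-2 for 48-72 hrs. Live-cell Renilla luciferase substrate added; luminescence read after 1-1.5 hrs.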
# [6] = tested on: Zika virus NS2B-NS3 protease (unlinked complex); experiment: Confirmatory screen GU AMC qHTS for Zika virus inhibitors (AID 1347153);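 further: enzyme at 25 nM with substrate at 10 µM below its Km of 18.3 µM; potency means the concentration at half of the fitted maximal effect; nearly all actives have a fitted effect of over 70% in size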
# Summary of the method: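 Noncovalent NS2B hydrophilic domain/NS3 protease complex (25 nM) in 10 mM Tris-HCl pH 8.0, 0.01% Tween 20 was preincubated 15 min at room temperature with compounds. Then 10 µM AMC substrate (Km 18.3 µM) was added; fluorescence was read over 15 min and fitted to a 4-parameter Hill equation.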
# [7] = Confirmatory screen NINDS Rhodamine qHTS for Zika virus inhibitors (AID 1347161);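 further: purified Zika NS2B-NS3 protease with linked NS2B cofactor domain and Rhodamine110 peptide substrate; nearly all actives have a fitted effect of over 60% in size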
# Summary of the method: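 Purified linked NS2B-NS3 protease (NS2B hydrophilic domain joined to NS3 protease by flexible linker), 25 nM in 10 mM Tris-HCl pH 8.0, 0.01% Tween 20. Compounds titrated, 15 min preincubation at room temperature; 1.5 microM Rhodamine110 substrate, FITC fluorescence change over 15 min.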
# [8] = Primary qHTS for small molecule stabilizers of the endoplasmic reticulum resident proteome: Secreted ER Calcium Modulated Protein (SERCaMP) assay (AID 1508630); details: SH-SY5Y GLuc-SERCaMP (Gaussia luciferase released on ER calcium loss) secretion, thapsigargin, luminescence; activity change, negative = inhibition: at 38.4 µM (top of the series) unless noted; further: potency means the concentration at half of the fitted maximal effect
# Summary of the method: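 The SH-SY5Y reporter protocol was run at 3 concentrations up to 38.3 uM (primary) or 11 concentrations (follow-up): 16 h compound, 100 nM thapsigargin for 4 h, then extracellular luciferase luminescence.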
# Tags describe the fitted curve by direction and shape.
smiles,measurement,setting,value
O=C(O)COc1ccc(-c2nccc3c2C(=O)N(Cc2cccc(C(F)(F)F)c2)CC(COc2ccccc2)O3)cc1 (centres undefined),Potency,[1],"inconclusive: 62.2 µM [inhibitor, single point]"
same,Potency,[2],"inconclusive: 355 µM [inhibitor, partial curve, poor fit]"
COC(=O)/C=C/c1cccc(N(Cc2ccc(-c3ccc(N(C)C)cc3)cc2)C(=O)C2CCCCC2)c1,Potency,[3],inactive
CC(C)(C)c1cc(C(=O)/C=C/c2ccc(C(=O)O)cc2)cc(C(C)(C)C)c1,Potency,[3],"inconclusive: 7.52 µM [inhibitor, full curve, poor fit]"
CC(C)CN1CC(COc2ccc3ccccc3c2)Oc2ccnc(-c3ccc(OCC(=O)O)cc3)c2C1=O (centres undefined),Potency,[1],"inconclusive: 87.9 µM [inhibitor, single point]"
same,Potency,[4],"inconclusive: 5.01 µM [inhibitor, partial curve, poor fit]"
same,Potency,[5],inactive
O=C(O)COc1ccc(-c2nccc3c2C(=O)N(Cc2ccccc2)CC(COc2ccc4cccnc4c2)O3)cc1 (centres undefined),Potency,[1],"inconclusive: 44.1 µM [inhibitor, partial curve]"
same,Potency,[6],"inconclusive: 55.5 µM [inhibitor, partial curve, poor fit]"
same,Potency,[4],"inconclusive: 10 µM [inhibitor, full curve]"
same,Potency,[2],"inconclusive: 126 µM [inhibitor, full curve, poor fit]"
O=C(O)COc1ccc(-c2nccc3c2C(=O)N(Cc2cccc(C(F)(F)F)c2)CC(COc2cccc(F)c2)O3)cc1 (centres undefined),Potency,[1],"inconclusive: 55.5 µM [inhibitor, single point]"
same,Potency,[6],"inconclusive: 49.4 µM [inhibitor, partial curve]"
same,Potency,[2],"inconclusive: 355 µM [inhibitor, partial curve, poor fit]"
same,Potency,[5],inactive
CCOC(=O)c1ncc2[nH]c3cccc(OC(C)C)c3c2c1C,Potency,[3],"inconclusive: 23.8 µM [inhibitor, single point]"
O=C(O)c1cccc(-c2cccc(C(F)(F)F)c2)c1,Potency,[1],inactive
same,Potency,[2],"inconclusive: 282 µM [inhibitor, partial curve, poor fit]"
same,Potency,[5],"inconclusive: 19 µM [inhibitor, partial curve, poor fit]"
CCOC(=O)O[C@H](C)OC(=O)C1N2C(=O)[C@H](NC(=O)[C@H](N)c3ccccc3)C2SC1(C)C (some centres undefined),Potency,[1],inactive
same,Potency,[3],active: 26.7 µM
same,Potency,[7],inactive
same,Potency,[5],"inconclusive: 6.58 µM [inhibitor, full curve]"
same,Potency,[8],"inconclusive: 2.24 µM [inhibitor, full curve, poor fit]"
